According to PMC9911399:
Some of the results follow.

Target: T1, RBFOX1 RRM (Homo sapiens) (UniProt Q9NWB1)
T1 sequence: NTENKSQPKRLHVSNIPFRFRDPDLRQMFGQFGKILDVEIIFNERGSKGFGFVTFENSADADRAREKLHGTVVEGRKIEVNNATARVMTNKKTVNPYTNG
Assay: EMSA
Conditions: HiTS-Eq, 1 nM pool, 10 min; buffer printed only for the single-RNA assays: 10 mM Tris pH 7.5, 150 mM NaCl, 3.4 mM EDTA, 0.001% NP-40, 30 C

Sequence	binding signal (KA relative to UGCAUGU)
GGGAGACCGGAAUUCAGAUUGUCCACUCCCAUUAAAUCCCGUCGUAGCCACCA / CAATCTGAATTCCGGTCTCCC / TGGTGGCTACGACGGGATT	0.00145
GGGAGACCGGAAUUCAGAUUGUCCCCCAUAAUUAAAUCCCGUCGUAGCCACCA / CAATCTGAATTCCGGTCTCCC / TGGTGGCTACGACGGGATT	0.00665
GGGAGACCGGAAUUCAGAUUGUCCGGUCCUGUUAAAUCCCGUCGUAGCCACCA / CAATCTGAATTCCGGTCTCCC / TGGTGGCTACGACGGGATT	0.00897
GGGAGACCGGAAUUCAGAUUGUCCGGUUCCCUUAAAUCCCGUCGUAGCCACCA / CAATCTGAATTCCGGTCTCCC / TGGTGGCTACGACGGGATT	0.0193
GGGAGACCGGAAUUCAGAUUGUCCCCACACCUUAAAUCCCGUCGUAGCCACCA / CAATCTGAATTCCGGTCTCCC / TGGTGGCTACGACGGGATT	0.000441
GGGAGACCGGAAUUCAGAUUGUCCUCCCCGGUUAAAUCCCGUCGUAGCCACCA / CAATCTGAATTCCGGTCTCCC / TGGTGGCTACGACGGGATT	0.0115
GGGAGACCGGAAUUCAGAUUGUCCCCCCACGUUAAAUCCCGUCGUAGCCACCA / CAATCTGAATTCCGGTCTCCC / TGGTGGCTACGACGGGATT	0.00292
GGGAGACCGGAAUUCAGAUUGUCCCCCCCAAUUAAAUCCCGUCGUAGCCACCA / CAATCTGAATTCCGGTCTCCC / TGGTGGCTACGACGGGATT	0.0149
GGGAGACCGGAAUUCAGAUUGUCCCUCCCACUUAAAUCCCGUCGUAGCCACCA / CAATCTGAATTCCGGTCTCCC / TGGTGGCTACGACGGGATT	0.000116
GGGAGACCGGAAUUCAGAUUGUCCGACUCCCUUAAAUCCCGUCGUAGCCACCA / CAATCTGAATTCCGGTCTCCC / TGGTGGCTACGACGGGATT	0.00712
GGGAGACCGGAAUUCAGAUUGUCCGGUCUAAUUAAAUCCCGUCGUAGCCACCA / CAATCTGAATTCCGGTCTCCC / TGGTGGCTACGACGGGATT	0.0114
GGGAGACCGGAAUUCAGAUUGUCCCCCCUACUUAAAUCCCGUCGUAGCCACCA / CAATCTGAATTCCGGTCTCCC / TGGTGGCTACGACGGGATT	0.00532
GGGAGACCGGAAUUCAGAUUGUCCCCCCCCGUUAAAUCCCGUCGUAGCCACCA / CAATCTGAATTCCGGTCTCCC / TGGTGGCTACGACGGGATT	0.0132
GGGAGACCGGAAUUCAGAUUGUCCAACUCCCUUAAAUCCCGUCGUAGCCACCA / CAATCTGAATTCCGGTCTCCC / TGGTGGCTACGACGGGATT	0.00265
